Where “and” joins values, the source holds several entries; their conditions need not be identical. Equal entries are not always repeated. Out of some 48,000 compounds screened, about 1,200 (2.5%) were called active. Another 2% or so got no clear call; they are omitted.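 Rule for the calls: active = activation of at least 60% and not above a set upper limit (about 1 call in 100 departs from these limits); inconclusive = activation of 40% to 60%, or above that upper limit; inactive = activation under 40%.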 This is one part of the list.
Biological target: Probable G-protein coupled receptor 32 (Homo sapiens) (UniProt O75388)
Chain of UniProt O75388 (O75388 whole entry, looked up): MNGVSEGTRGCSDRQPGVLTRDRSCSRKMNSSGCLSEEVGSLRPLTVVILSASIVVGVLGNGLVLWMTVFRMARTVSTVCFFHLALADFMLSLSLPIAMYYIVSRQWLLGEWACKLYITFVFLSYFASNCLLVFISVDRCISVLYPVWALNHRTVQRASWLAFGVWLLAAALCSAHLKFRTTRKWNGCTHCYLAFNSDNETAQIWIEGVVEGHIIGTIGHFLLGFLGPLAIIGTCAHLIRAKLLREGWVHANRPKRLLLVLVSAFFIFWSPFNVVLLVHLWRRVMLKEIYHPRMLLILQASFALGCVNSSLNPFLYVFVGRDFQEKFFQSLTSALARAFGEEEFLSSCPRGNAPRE
Experiment: qHTS for Agonists of Human Resolvin D1 Receptor DRV1; note: 0% is about no effect
Conditions: CHO-K1 GPR32 beta-arrestin PathHunter luminescence, 90 min; at 76.9 µM; hits give high values; zero percent set by DMSO-only wells
How it was run: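 Engineered CHO-K1 line co-expressing GPR32-ProLink and EA-beta-arrestin. Compound treatment lasted 90 min at 37 °C. Luminescence was recorded after 1 h with substrate at ambient temperature, relative to DMSO basal wells.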

activation, inactive:
Cc1cc(C)cc(-n2c(SCC(=O)Nc3nnc(C)s3)nc3c([nH]c4ccccc43)c2=O)c1 41.3%, COC(=O)c1ccc(NC(=O)Cc2coc3cc(C)ccc23)cc1 -9.54%, O=C(NCCCN1CCOCC1)c1ccc2c(c1)N(Cc1ccccc1)C(=O)c1ccccc1S2 -22.5%, CCn1c2ccccc2c2nnc(N3CCN(c4cccc(C)c4C)CC3)nc21 -17.9%, Cc1ccc(C)c(CN2CCC(CNC(=O)Cn3ncc4c([nH]c5ccccc54)c3=O)CC2)c1 6.52%, NC/C=C/C(=O)O 21% and -3.98%, CCOc1ccc(NC(=O)NC(C)c2c(-n3cccc3)sc(C)c2C)cc1 (centres undefined) -20%, CCOc1ccccc1CNC(=O)CN1C(=O)CCCc2ccccc21 -77.5%, CCOC(=O)CSc1nc2sc3c(c2c(=O)n1Cc1ccccc1)CC(C)CC3 (centres undefined) -20.3%, Cc1ccc(-n2ncc3c(NCCc4ccccc4)ncnc32)cc1C 7.6%, Cc1cccc(OCCCCn2nnc3sc4c(c3c2=O)CCC(C)C4)c1 (centres undefined) -17.6%, Cc1nc2nc(SCC(=O)NCc3ccccc3)nn2c(C)c1Cc1ccccc1Cl 6.19%, O=C(COc1ccccc1)Nc1ccc(C(=O)OCc2cc(=O)n3nc(C4CC4)sc3n2)cc1 3.2%, CCN(CC)CCNC(=O)C1CCN(S(=O)(=O)c2c(C)noc2/C=C/c2ccccc2F)CC1 -7.38%, Cc1ccc(OCCSc2nc3ccc(NC(=O)COc4ccc(F)cc4)cc3s2)cc1 10.6%, COc1ccc(-n2c(/C=C/c3cc(OC)c(OC)cc3OC)nc3cc4ccccc4cc3c2=O)cc1Cl -13.5%, CCN(CC)CCOC(=O)c1cc(Cl)c(N)cc1OC -10.7%, CCc1cccc(C)c1NC(=O)CN1CCCN(Cc2ccc(C)cc2)S1(=O)=O -5.57%, COc1ccc(-c2c(C)nn3c(C(F)(F)F)cc(-c4ccc(Br)cc4)nc23)cc1 -13.3%, O=C(Cc1cccs1)NC1CC(=O)N(c2ccccc2)C1 (centres undefined) -0.991%, O=C(CN1CCCN(Cc2ccccc2Cl)S1(=O)=O)Nc1ccc2c(c1)OCCO2 21.5%, Cc1cc(C)n2c(Nc3c(C)cccc3C)c(-c3ccsc3)nc2n1 15.9%, CCOC(=O)c1cc(-c2ccc(F)cc2)n(CC(=O)NC2CCCCC2)c1C -1.53%, COc1cc(/C=C/c2nc(C#N)c(NC(C)c3ccccc3)o2)cc(OC)c1OC (centres undefined) -25.5%, Cc1ccc(S(=O)(=O)N[C@@H](Cc2ccccc2)C(=O)CCl)cc1 -3.49%, O=C(O)CCc1ccc(-c2ccccc2)n1-c1cccc(Br)c1 -9.34%, CCOc1ccc(CNC(=O)Cn2c(=O)c3cccn3c3ccc(F)cc32)cc1OC -15.6%, O=C(CCCCn1c(=O)c2ccccc2n(CC(=O)Nc2cccc(F)c2)c1=O)NCc1ccccc1Cl -5.05%, CN(Cc1ccccc1)C(=O)c1cc2c(s1)-c1ccc(Cl)cc1SC2 -23.4%, COc1cc(NCc2ccc3nc(N)nc(N)c3c2C)cc(OC)c1OC 8.84%, Cc1ccc(NC(=O)CCSc2nc(-c3ccc4c(c3)OCO4)cc(C(F)(F)F)n2)cc1 -9.08%, CCCCN(C)CCNC(=O)Cn1ncc2c([nH]c3ccccc32)c1=O -7.97%, Cc1ccc(CNC(=O)Cn2c(=O)n(-c3ccccc3)c(=O)c3c2c2cc(C)ccc2n3C)cc1 -1.97%, CCc1ccc(Oc2nc3c(C)cccn3c(=O)c2/C=C(\C#N)c2nc3ccccc3s2)cc1 -6.08%, O=C(c1ccc(Cl)cc1)n1nc(-c2ccco2)nc1NCc1cccs1 0.776%, CCOC(=O)CCN(c1ccccc1)S(=O)(=O)c1ccc2[nH]c(=O)ccc2c1 -2.11%, CCOCCCNC(=O)CN1C(=O)c2c(c3ccccc3n2C)C1c1ccc(OC)cc1 (centres undefined) -11.1%, COc1cccc(N(Cc2nnc3n2CCCCC3)C(=O)Nc2cccc(Cl)c2)c1 15.5%, CCOC(=O)N1CCN(/[N+]([O-])=N/Oc2ccc([N+](=O)[O-])cc2[N+](=O)[O-])CC1 -4.23%, CCCN1CCCC[C@H]1C(=O)Nc1c(C)cccc1C -6.84%, COc1cc(C(=O)NCc2ccc(OCCN(C)C)cc2)cc(OC)c1OC -13.1%, CCOc1ccccc1NC(=O)N1CCCn2nc(C)cc21 -5.67%, O=C(NCC(c1cccs1)S(=O)(=O)c1cccs1)c1ccc(C(F)(F)F)cc1 (centres undefined) 42.8%, O=C(Cc1csc2nc(-c3ccccc3)cn12)NCc1ccc(F)cc1 -2.43%, CCOC(=O)c1c(S(=O)(=O)N2CCCC(C(=O)Nc3ncccc3C)C2)c(C)n(C)c1C (centres undefined) -17.3%, O=C(OCc1ccccc1Cl)c1ccc(-c2nnn(Cc3ccccc3Cl)n2)cc1 -3.82%, Cc1ccc(NC(=O)CCc2c(C)nn(-c3ccc(N4CCOCC4)nn3)c2C)cc1F 29.2%, COc1ccc(N(C(=O)COc2ccc(Br)cc2)S(=O)(=O)c2ccc(C)cc2)cc1 -5.31%, COc1ccc2c(c1)c1c(c(=O)n(-c3ccc(OC)c(OC)c3)c(=O)n1Cc1ccc(C)cc1)n2C 1.58%, CCCCNC(=O)CCCn1c(=O)c2ccccc2n(Cc2ccc(Cl)cc2)c1=O -12.3%, COc1ccc(C2CC(=O)c3cnc4c(-c5ccccc5)c(C)nn4c3C2)c(OC)c1 (centres undefined) 8%, CC(C)(C)OC(=O)N1CCC(c2c(C(=O)N3CCOCC3)cnn2-c2ccccc2Cl)CC1 -3.44%, Cc1cc2c(cc1C)-n1c(-c3ccccc3)c3c(=O)n(C)c(=O)n(C)c3c1C(c1ccco1)N2 (centres undefined) -5.25%, COc1ccccc1CNC(=O)CCCn1c(=O)c2cccn2c2ccccc21 -17.7%
